The other results are listed elsewhere or left out.

The target of the experiment is T1, OsWOX13 (Oryza sativa, UniProt Q5QMM3 1-267).
T1 sequence: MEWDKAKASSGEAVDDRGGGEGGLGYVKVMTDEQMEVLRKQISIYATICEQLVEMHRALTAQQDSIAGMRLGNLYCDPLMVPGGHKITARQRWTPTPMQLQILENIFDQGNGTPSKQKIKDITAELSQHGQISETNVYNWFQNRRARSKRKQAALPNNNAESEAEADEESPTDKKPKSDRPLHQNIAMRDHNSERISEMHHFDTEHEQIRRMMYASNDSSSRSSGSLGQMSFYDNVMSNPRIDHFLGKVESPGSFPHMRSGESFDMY
Nature of the experiment: protein-binding microarray (RPBM); PBS, 2% BSA, 51.3 ng/ul salmon testes DNA, 50 uM zinc acetate, 200 nM TF, 25 C, 1 h; high values mean tight binding. Conditions: protein: recombinant; tags: N-terminal polyhistidine and DsRed monomer fusion (pET32a); label: CyDye5-dUTP incorporated in the synthesized complementary strand; 3' TTTTT single-stranded linker to array surface; dsDNA, one strand shown. The procedure, abridged: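 In PBS with 2% BSA, salmon testes DNA and 50 µM zinc acetate, 200 nM protein was incubated on a custom Agilent array at 25 °C for 1 h and then washed off. The array had been made double-stranded by primer extension with Cy5-dUTP and blocked with 2% BSA. The proteins were transcription factors fused N-terminally to polyhistidine and DsRed, expressed in E. coli BL21-CodonPlus and purified on Ni–NTA. The binding signal is per-feature fluorescence intensity (arbitrary units) from an Axon 4000B scanner.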
Turning to “CAAGATAGCAATTGATTTACAGCGTATCGATCTATTTGTACGGAGTCACCTAGTGCAG”, the binding signal was 24500 fluorescence intensity (a.u.).

As to “AGCCATCGATTTGAGATTTGATTAGTAATTCGGAGGAGGACGGAGTCACCTAGTGCAG”, the binding signal is 20000 fluorescence intensity (a.u.).

In the case of “GCAATCAATTATTCCGCCGCTCTCCAGCGACGCAATTGCGCGGAGTCACCTAGTGCAG”, the binding signal is 11700 fluorescence intensity (a.u.).

Turning to “TAGATTACTAGATTAGCTAGGTTCTTGTAGTATACGTAGCCGGAGTCACCTAGTGCAG”, the binding signal is 4940 fluorescence intensity (a.u.).

Turning to “GTGTCCATCAATTAATAACAGAAAGAAGAAGAGGATCCGGCGGAGTCACCTAGTGCAG”, the binding signal was 22800 fluorescence intensity (a.u.).

Turning to “GAGTTACGCGCGCTTAATTAGCTTAGACACAGCTAGAGGACGGAGTCACCTAGTGCAG”, the binding signal is 4350 fluorescence intensity (a.u.).

As for “TGATGTTAAATTATGTCTTTTGTTACCTACAGTCAAAGGGCGGAGTCACCTAGTGCAG”, the binding signal is 6580 fluorescence intensity (a.u.).

Regarding “TTAGATTTGTCATTAATCACCGAATCCAAATTAAGGCACTCGGAGTCACCTAGTGCAG”, the binding signal was 30700 fluorescence intensity (a.u.).

For the sequence “AACCAGATTGTAAACTGTGAAATTCGGTTCGATATGAATGCGGAGTCACCTAGTGCAG”, the binding signal is 4890 fluorescence intensity (a.u.).

With “GGACCATAGATTAATCATTTAAGCACTAATTAAGTGAGGACGGAGTCACCTAGTGCAG”, the binding signal was 19800 fluorescence intensity (a.u.).

Take “TAAATTAGATGAAAATAAATTTGAATAGATGCTTGTCCAGCGGAGTCACCTAGTGCAG”: the binding signal was 21500 fluorescence intensity (a.u.).

As to “CTAAACAATTTAGAATGACAACTATACTACGACGGAGGGACGGAGTCACCTAGTGCAG”, the binding signal is 5960 fluorescence intensity (a.u.).

As for “ATGTACTAGTAATTGAGTGGAGCTTTGATCGATTGAAAGGCGGAGTCACCTAGTGCAG”, the binding signal was 17100 fluorescence intensity (a.u.).

“TACTGATTTTCTTTATGTCTCTTTGTGGTCCCTTTGCAGTCGGAGTCACCTAGTGCAG”: the binding signal was 18300 fluorescence intensity (a.u.).

Turning to “GTGCTTAATTTATTGGTATTTGTTTGTTACTTTGATTACGCGGAGTCACCTAGTGCAG”, the binding signal is 36400 fluorescence intensity (a.u.).

Turning to “GGACGTATATATACATTGATTAATACCAAATCCTCAGCACCGGAGTCACCTAGTGCAG”, the binding signal is 4520 fluorescence intensity (a.u.).

For the sequence “ATGTGATGATGAGTAGTGGGTTAGTTGGTAGGTAGGCCGCCGGAGTCACCTAGTGCAG”, the binding signal was 9740 fluorescence intensity (a.u.).

“AACACTTGATTGGATCAGGAGGTACAAATGAATTATTTATCGGAGTCACCTAGTGCAG”: the binding signal is 27800 fluorescence intensity (a.u.).

Turning to “GGATTGATTAGGATTAGGATTAGAGCATTGTTCCGGTCCACGGAGTCACCTAGTGCAG”, the binding signal is 32200 fluorescence intensity (a.u.).

Take “CATACGCAACTTAATTATCTACTCCTTCTGGGCATAATTACGGAGTCACCTAGTGCAG”: the binding signal was 3800 fluorescence intensity (a.u.).

As for “GCTATACAATTAAATAGATAATCCACGACAATAATATCCTCGGAGTCACCTAGTGCAG”, the binding signal was 3700 fluorescence intensity (a.u.).

For the sequence “CAACTACATTTATCTTTCTCAATCAAGTAATCTCTCATGTCGGAGTCACCTAGTGCAG”, the binding signal is 7250 fluorescence intensity (a.u.).

“GAAGCAAACAAACATGATTGATAACAGAATGGTCCTTTCCCGGAGTCACCTAGTGCAG”: the binding signal is 28000 fluorescence intensity (a.u.).

As for “GTAAACTTTAATTAACCCTGTGCACATGGCATCCTCTTATCGGAGTCACCTAGTGCAG”, the binding signal is 14000 fluorescence intensity (a.u.).

In the case of “CTAAGAGTAAGTAGATTGATTTTAACCAAAATCAAAACGACGGAGTCACCTAGTGCAG”, the binding signal was 14200 fluorescence intensity (a.u.).

For “GACCAAATCATGGCCTAATCACGCGAAAACCCGCGCTTTCCGGAGTCACCTAGTGCAG”, the binding signal was 17000 fluorescence intensity (a.u.).

Take “CCGTAATTGAGAGTGAAACTAAAATCATCTCAGTCAAATTCGGAGTCACCTAGTGCAG”: the binding signal is 32400 fluorescence intensity (a.u.).

For “CTAATTAACCAGTAAATTATAAACAAAAGCGTATTTTGAACGGAGTCACCTAGTGCAG”, the binding signal is 24700 fluorescence intensity (a.u.).

With “TCAATTATGATTATAGATAATTACGATGGACGACTGTCAACGGAGTCACCTAGTGCAG”, the binding signal was 16600 fluorescence intensity (a.u.).

“AGTATATCTACAATAATTATAATTTATTGCAACTACGCTGCGGAGTCACCTAGTGCAG”: the binding signal was 22000 fluorescence intensity (a.u.).

As for “ACAGTTTGATTAGTGCCAAGGATCAAACATTTTCCTACTGCGGAGTCACCTAGTGCAG”, the binding signal is 23700 fluorescence intensity (a.u.).

Regarding “CTTAATTTGGCACTGCCCAAGAAAATTTTGACAAGTACTTCGGAGTCACCTAGTGCAG”, the binding signal was 9440 fluorescence intensity (a.u.).

Regarding “ATAAGGAGATTGAGCTTGACCAAGTACAGTCTCAGGACATCGGAGTCACCTAGTGCAG”, the binding signal was 3560 fluorescence intensity (a.u.).

Consider “CGAATTAACTAGATCATATTACTCTTTCATGCAATAAACACGGAGTCACCTAGTGCAG”, for which the binding signal is 4320 fluorescence intensity (a.u.).

Turning to “AAGGATAGACAATTTGCTGAGCTTTATAATGTTGGCATCACGGAGTCACCTAGTGCAG”, the binding signal was 6480 fluorescence intensity (a.u.).

As for “TTAAGCCTAATTAATCTGTCATTAGTAAATGTTTACTGTACGGAGTCACCTAGTGCAG”, the binding signal was 21500 fluorescence intensity (a.u.).

For “AGGTTATGATTGCGCGAAGCCGTGACTTAGATAGCTAGTTCGGAGTCACCTAGTGCAG”, the binding signal was 17200 fluorescence intensity (a.u.).

In the case of “AACTCAATTAGTCTTAATGAATTTGTCGTTTTGCATGCCGCGGAGTCACCTAGTGCAG”, the binding signal is 17800 fluorescence intensity (a.u.).

Consider “GATAATTTCATTTATGAGAAAGGCCAAATCCCTTATAGCTCGGAGTCACCTAGTGCAG”, for which the binding signal is 11000 fluorescence intensity (a.u.).

“TGCTAATTGGGGATTTTCACATTCATGCTGTGTTAGCAGGCGGAGTCACCTAGTGCAG”: the binding signal was 54700 fluorescence intensity (a.u.).

Regarding “CAATCAATCAGTCAAGCAATCCGGCGTTACAGCTGGCTCGCGGAGTCACCTAGTGCAG”, the binding signal was 34200 fluorescence intensity (a.u.).

Take “CAATTAACTTAACTTGAGTGTTTATGCATTCGTGATGATGCGGAGTCACCTAGTGCAG”: the binding signal is 6830 fluorescence intensity (a.u.).

Source of the values: publication PMC7819943, “Rice protein-binding microarrays: a tool to detect cis-acting elements near promoter regions in rice”.
